We go through two molecules from patent US20150276755A1 (AGENCY FOR SCIENCE TECHNOLOGY AND RESEARCH, published 2015).

The target in the assay is p53 tumor suppressor protein, wild-type, full-length (UniProt P04637). Nature of the assay: cell-based or functional assay.
UniProt P04637, sequence (P04637 whole entry): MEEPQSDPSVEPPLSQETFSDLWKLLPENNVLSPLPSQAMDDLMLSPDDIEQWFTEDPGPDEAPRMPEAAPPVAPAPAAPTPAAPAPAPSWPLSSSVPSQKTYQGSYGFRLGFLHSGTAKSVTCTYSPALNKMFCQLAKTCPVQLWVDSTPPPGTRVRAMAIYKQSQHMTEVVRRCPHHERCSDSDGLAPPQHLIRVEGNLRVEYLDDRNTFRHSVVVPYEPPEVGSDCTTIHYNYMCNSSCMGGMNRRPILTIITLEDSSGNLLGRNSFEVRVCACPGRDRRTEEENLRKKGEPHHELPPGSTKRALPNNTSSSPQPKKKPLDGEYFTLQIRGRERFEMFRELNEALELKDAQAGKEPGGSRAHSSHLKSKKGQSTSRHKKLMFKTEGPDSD

B1: HA-tagged HDM2 M62A (enzyme, not shown: small tags and cut ends)
chain: not shown
In the case of B1, the “p53 transactivation reporter activity in p53/MDM2-null DKO cells, no antagonist” value was about 90%.

B2: HA-tagged HDM2 Q24R (enzyme, not shown: small tags and cut ends)
chain: not shown
On to B2, for which the “p53 transactivation reporter activity in p53/MDM2-null DKO cells, no antagonist” value was about 90%.
